Assay results published in the supplement of paper PMC10369915.
The other results are listed elsewhere or left out. Rule as the data show it: active = 3.2 or more and inactive = the rest. The signal is at background level for most entries.

B1: ANR11_HUMAN_1850_YA (peptide)
chain: FACLSPGYASPDAGL
B2: ANS1B_HUMAN_901 (peptide)
chain: DSIELGDYTKAFLIN
B3: NFASC_HUMAN_481 (peptide)
chain: DGGNYHVYENGSLEI
B4: MYPC1_HUMAN_823_YA (peptide)
chain: AGASEPKYASQPILV
B5: MYLK_HUMAN_1635_YA (peptide)
chain: VAPEVINYEPIGAAT
B6: NFIP2_HUMAN_177 (peptide)
chain: FYPVPPPYSVATSLP
B7: NOA1_HUMAN_77 (peptide)
chain: ERFLFPEYILDPEPQ
B8: ANR11_HUMAN_1851_YA (peptide)
chain: ACLSPGAYSPDAGLP
B9: MYLK_HUMAN_611 (peptide)
chain: KSSRKSEYLLPVAPS
B10: NFIP2_HUMAN_167_YA (peptide)
chain: TTSDTEVYGEFAPVP
B11: NFIC_HUMAN_300 (peptide)
chain: TSPGGDYYTSPSSPT
B12: NPHP1_HUMAN_721 (peptide)
chain: FDLSEQTYDFLGEMR
B13: NCK1_HUMAN_105_YA (peptide)
chain: VDPGERLYDLNMPAA
B14: NFKBIA_HUMAN_305 (peptide)
chain: FTEDELPYDDCVFGG
B15: NOS2_HUMAN_151 (peptide)
chain: IEFVNQYYGSFKEAK
B16: NPHP1_HUMAN_349 (peptide)
chain: GNQFRANYFLQPELM
B17: NAMPT_HUMAN_188_YA (peptide)
chain: GNLDGLEYKLHDFGA
B18: ANXA1_HUMAN_21 (peptide)
chain: IENEEQEYVQTVKSS
B19: MYLK_HUMAN_1449 (peptide)
chain: EKEPEVDYRTVTINT
B20: MYH1_HUMAN_424 (peptide)
chain: GQTVQQVYNAVGALA
B21: NGEF_HUMAN_179 (peptide)
chain: IEQIGLLYQEYRDKS
B22: NFM_HUMAN_320 (peptide)
chain: AKEEIAEYRRQLQSK
B23: MYLK_HUMAN_1635 (peptide)
chain: VAPEVINYEPIGYAT
B24: NCK1_HUMAN_105 (peptide)
chain: VDPGERLYDLNMPAY
B25: MYH2_HUMAN_389 (peptide)
chain: EVADKAAYLQSLNSA
B26: MYLK_HUMAN_846 (peptide)
chain: DGGGSDRYGSLRPGW
B27: MYLK_HUMAN_471_YA (peptide)
chain: AEDAGSHYLCLLKAR
B28: NIPBL_HUMAN_1159 (peptide)
chain: SDSDMEDYSPPPSLS
B29: NETO1_HUMAN_417 (peptide)
chain: VADDFENYHKLRRSS
B30: NDUV2_HUMAN_193_YA (peptide)
chain: VQINDNAYEDLTAKD
B31: NMDE2_HUMAN_962 (peptide)
chain: EENLFSDYISEVERT
B32: NFIP2_HUMAN_171_YA (peptide)
chain: TEVAGEFYPVPPPAS
B33: NFIC_HUMAN_300_YA (peptide)
chain: TSPGGDAYTSPSSPT
B34: NNRD_HUMAN_85 (peptide)
chain: VVGGCQEYTGAPYFA
B35: NFIP2_HUMAN_151 (peptide)
chain: TDSSPPPYSSITVEV
B36: NDUV2_HUMAN_193 (peptide)
chain: VQINDNYYEDLTAKD

Target: SHP2 C-SH2 domain E139D
Assay: enrichment score (SH2-bound / input frequency) (ratio); bacterial display of known human phosphotyrosine sites (pTyr-Var adds point mutants) read by sequencing; higher = stronger binding; tyrosines were phosphorylated by kinases first
Conditions: peptide library: Human pTyr
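Also: displayed peptides selected on beads carrying the immobilized SH2 domain, with library peptides lacking any tyrosine serving as negative controls.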

Enrichment score, inactive:
B1 1.23
B2 0.685
B3 0.773
B4 0.6
B5 0.562
B6 0.583
B7 1.14
B8 0.898
B9 0.709
B10 1.25
B11 0.828
B12 0.59
B13 0.595
B14 1
B15 1.14
B16 0.786
B17 0.57
B18 1.1
B19 1.04
B20 0.696
B21 1.01
B22 0.809
B23 0.801
B24 0.612
B25 0.658
B26 0.659
B27 1.7
B28 0.746
B29 0.667
B30 1
B31 0.866
B32 0.495
B33 0.267
B34 1.13
B35 1.35
B36 1.46

Target: SHP2 C-SH2 domain wild-type
Assay: as above
Conditions: peptide library: Human pTyr

Enrichment score, inactive:
B1 1.81
B2 0.554
B3 0.66
B4 0.526
B5 0.712
B6 0.533
B7 0.847
B8 1.03
B9 0.54
B10 0.62
B11 0.56
B12 0.528
B13 0.588
B14 0.867
B15 0.954
B16 0.739
B17 0.484
B18 0.979
B19 0.691
B20 0.657
B21 0.904
B22 0.875
B23 0.705
B24 0.585
B25 0.595
B26 0.684
B27 1.12
B28 0.69
B29 0.776
B30 0.872
B31 0.959
B32 0.434
B33 0.523
B34 1.19
B35 0.896
B36 1.11

Target: SHP2 N-SH2 domain L43F
Assay: as above
Conditions: peptide library: Human pTyr

Enrichment score, inactive:
B1 0.968
B2 0.596
B3 0.818
B4 0.696
B5 0.578
B6 0.648
B7 1.13
B8 0.786
B9 0.802
B10 0.616
B11 0.687
B12 0.611
B13 0.692
B14 0.857
B15 1.09
B16 0.707
B17 0.521
B18 0.845
B19 0.976
B20 0.623
B21 0.806
B22 0.877
B23 0.66
B24 0.593
B25 0.844
B26 0.662
B27 1.5
B28 0.9
B29 0.777
B30 1.05
B31 0.786
B32 0.64
B33 0.395
B34 1.03
B35 0.798
B36 0.889

Target: SHP2 N-SH2 domain T42A
Assay: as above
Conditions: peptide library: Human pTyr

Enrichment score, inactive:
B1 0.968
B2 0.628
B3 0.862
B4 0.514
B5 0.652
B6 0.651
B7 0.683
B8 0.956
B9 0.677
B10 0.698
B11 0.754
B12 0.921
B13 0.677
B14 1.12
B15 0.992
B16 0.746
B17 0.468
B18 0.84
B19 0.987
B20 0.659
B21 1.07
B22 0.757
B23 0.85
B24 0.541
B25 0.878
B26 0.72
B27 1.08
B28 0.896
B29 0.659
B30 0.846
B31 0.922
B32 0.562
B33 0.353
B34 1.16
B35 0.813
B36 1.17

Target: SHP2 N-SH2 domain T52S
Assay: as above
Conditions: peptide library: Human pTyr

Enrichment score, inactive:
B1 1.07
B2 0.698
B3 0.59
B4 0.673
B5 0.418
B6 0.65
B7 1.11
B8 0.896
B9 0.906
B10 0.705
B11 0.811
B12 0.719
B13 0.565
B14 1.04
B15 1.04
B16 0.884
B17 0.485
B18 1.01
B19 0.834
B20 1.08
B21 1.1
B22 0.971
B23 0.809
B24 0.593
B25 0.685
B26 0.713
B27 1.36
B28 0.772
B29 0.836
B30 0.973
B31 0.815
B32 0.488
B33 0.129
B34 1.15
B35 0.725
B36 1.3

Target: SHP2 N-SH2 domain wild-type
Assay: as above
Conditions: peptide library: Human pTyr

Enrichment score, inactive:
B1 1.29
B2 0.919
B3 0.912
B4 0.733
B5 0.532
B6 0.764
B7 1.05
B8 0.941
B9 0.729
B10 0.634
B11 0.74
B12 0.419
B13 0.622
B14 1.14
B15 1.2
B16 0.776
B17 0.684
B18 1.02
B19 1.36
B20 0.585
B21 0.917
B22 0.849
B23 0.656
B24 0.549
B25 0.739
B26 0.637
B27 1.53
B28 0.779
B29 0.677
B30 0.998
B31 1.27
B32 0.352
B33 0.575
B34 1.24
B35 0.954
B36 1.13
